91 molecules from publication PMC4336329 (PLoS ONE, 2015) can be followed below.

SMILES strings stand for the structures. Screen size: about 310,000 compounds; about 2,200 (0.71%) showed an effect of 50% or more. The effect is printed as a negative number. The list shows a part of the results.

The target in the assay is human ether-à-go-go-related gene (hERG) potassium channel (human, UniProt Q12809). Description: primary screen, population patch clamp on CHO cells stably expressing hERG.
Chain of human ether-à-go-go-related gene (hERG) potassium channel (Q12809 whole entry, looked up): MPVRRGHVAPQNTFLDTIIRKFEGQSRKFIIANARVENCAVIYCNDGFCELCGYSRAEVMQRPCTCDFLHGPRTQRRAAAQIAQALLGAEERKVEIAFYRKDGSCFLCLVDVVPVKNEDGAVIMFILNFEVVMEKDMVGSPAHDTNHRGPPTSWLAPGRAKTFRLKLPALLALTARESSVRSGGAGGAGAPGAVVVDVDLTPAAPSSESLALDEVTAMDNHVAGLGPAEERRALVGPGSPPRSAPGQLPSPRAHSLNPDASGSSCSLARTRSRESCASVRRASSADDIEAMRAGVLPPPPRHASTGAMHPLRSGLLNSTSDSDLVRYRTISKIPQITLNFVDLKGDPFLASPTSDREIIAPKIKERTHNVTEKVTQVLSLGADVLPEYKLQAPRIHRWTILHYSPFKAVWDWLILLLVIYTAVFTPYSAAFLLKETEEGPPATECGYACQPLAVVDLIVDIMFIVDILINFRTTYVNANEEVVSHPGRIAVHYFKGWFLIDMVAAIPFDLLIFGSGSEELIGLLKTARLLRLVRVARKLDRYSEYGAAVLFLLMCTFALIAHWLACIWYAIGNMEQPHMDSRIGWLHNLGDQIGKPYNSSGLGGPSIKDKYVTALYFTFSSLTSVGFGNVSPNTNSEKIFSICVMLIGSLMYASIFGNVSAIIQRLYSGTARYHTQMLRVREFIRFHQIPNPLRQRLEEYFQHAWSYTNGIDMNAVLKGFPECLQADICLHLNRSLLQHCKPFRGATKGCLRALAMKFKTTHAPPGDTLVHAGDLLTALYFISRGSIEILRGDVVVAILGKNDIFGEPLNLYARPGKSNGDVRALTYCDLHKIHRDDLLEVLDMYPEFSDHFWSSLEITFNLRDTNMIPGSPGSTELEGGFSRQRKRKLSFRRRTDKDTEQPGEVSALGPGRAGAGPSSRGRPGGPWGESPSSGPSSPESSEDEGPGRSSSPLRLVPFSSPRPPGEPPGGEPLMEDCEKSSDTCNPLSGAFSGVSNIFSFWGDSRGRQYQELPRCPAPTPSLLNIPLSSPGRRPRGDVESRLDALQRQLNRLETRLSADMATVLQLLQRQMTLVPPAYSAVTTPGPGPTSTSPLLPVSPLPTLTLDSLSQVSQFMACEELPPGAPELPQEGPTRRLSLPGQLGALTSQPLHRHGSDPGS
As to `Cc1ccc(S(=O)(=O)NC(=O)Nc2ccc(N(C)C)cc2)cc1`, the “hERG current change (%, negative = inhibition) at 1uM” value was found to be 9.53%. Turning to `O=C(NCCc1ccccc1)C(=O)NCC1OCCCN1S(=O)(=O)c1cc(F)ccc1F` (stereo not shown), the “hERG current change (%, negative = inhibition) at 1uM” value was 6.06%. For `Cn1nc(C(C)(C)C)cc1C(=O)NCc1ccc2c(c1)OCO2` the value was 11.8%; for `NC(=O)c1ccccc1OC1CCC1`, 11.9%; for `NC(=O)c1cc(Cc2ccccc2)sc1NC(=O)c1ccco1`, 0.586%. As to `Nc1nc(-c2ccc(-c3ccccc3)cc2)cs1`, the “hERG current change (%, negative = inhibition) at 1uM” value amounted to 16.1%.

As for `COc1ccc(CN2CCc3c([nH]c4ccccc34)C2)cc1Br`, the “hERG current change (%, negative = inhibition) at 1uM” value is given as -0.401%. For `O=C(CC1CCCC1)NCCS(=O)(=O)N1CCN(c2ccc(F)cc2)CC1` the value was 5.7%; for `Cc1ccccc1C1c2[nH]c3ccccc3c2CCN1Cc1cccn1-c1ncccn1` (stereo not shown), -4.04%; for `Nc1ccc(S(=O)(=O)N2CCCC2)cc1`, -2.91%. For `O=C(Nc1ccc2c(c1)OCCO2)c1cc(-c2ccccc2)nc2ccccc12` the value was 5.52%; for `C/C=C(\C)c1nnc(NC(=O)C(C)C)s1`, 3.13%; for `O=C(/C=C1\SC(=O)N(CC(=O)Nc2ccc(Cl)cc2)C1=O)Nc1ccc(F)cc1`, 5.22%. For `Cc1cc(C)cc(NCc2cc3c(cc2[N+](=O)[O-])OCO3)c1` the value was -1.39%. `COCc1cc(=O)[nH]c(SCCS(=O)(=O)c2ccc(C)cc2)n1`: the “hERG current change (%, negative = inhibition) at 1uM” value worked out at 8.95%. For `CCN(CCNC(=O)Cn1cc2c(n1)CCCC2)c1ccccc1` the value was 0.546%. The result for `COc1ccc(C(=O)Nc2cccc3nc(C)ccc23)cc1OC` reads 13.3%; that for `Cc1cc(C)n(CC(=O)NNC(=O)CC(C)c2ccccc2)n1` (stereo not shown), 5.7%; that for `COc1ccc([N+](=O)[O-])cc1NCc1cccc([N+](=O)[O-])c1`, -21%. On to `O=C(Cn1ncc2c([nH]c3ccccc32)c1=O)Nc1ccc(F)cc1F`, for which the “hERG current change (%, negative = inhibition) at 1uM” value is recorded as 16.6%. The result for `Cc1ccccc1N1CCN(CCCN2C(=O)CC(=C(c3ccccc3)c3ccccc3)C2=O)CC1` reads 3.79%. For `CC(C)N(Cc1nc(-c2ccccc2)no1)C(=O)c1ccc(Cl)cc1` the value was 3.43%. Consider `O=C1CN2C(=Nc3ccc(Cl)cc3C2c2ccccc2)CN1` (stereo not shown), for which the “hERG current change (%, negative = inhibition) at 1uM” value was found to be 10.9%. For the molecule `CC1(C)NC(=O)NC2(C)NC(=O)NC(C)(C)C12` (stereo not shown), the “hERG current change (%, negative = inhibition) at 1uM” value is recorded as 4.28%.

Turning to `COCCN(Cc1cccs1)S(=O)(=O)c1ccc(-c2ccc(=O)[nH]n2)s1`, the “hERG current change (%, negative = inhibition) at 1uM” value is -18.6%. On to `O=C(Nc1ccnn1C1CCN(C(=O)Cc2cccc(Cl)c2)CC1)C1CC1`, for which the “hERG current change (%, negative = inhibition) at 1uM” value is listed as 8.98%. The result for `CC(C)(C)SC(C(=O)N1CCOCC1)c1ccc(Br)cc1` (stereo not shown) reads -0.285%; that for `Nc1nonc1C(=O)NCCN=Cc1ccccc1O`, 14.5%; that for `Clc1ccc(-c2ccccc2)cn1`, 9.29%.

In the case of `CC(/C=C/C=C/c1ccccc1)=N/NC(=O)CNc1ccccc1C`, the “hERG current change (%, negative = inhibition) at 1uM” value worked out at 4.85%. For `Cc1ccc(Nc2c(-c3ccccn3)nc3cccc(C)n23)cc1` the value was 4.48%; for `CC1=C(n2nnc([N+](=O)[O-])n2)C(c2cccnc2)C(C#N)=C(N)O1` (stereo not shown), 5.88%. Regarding `COc1cccc(Nc2nc(CC(C)=O)ns2)c1`, the “hERG current change (%, negative = inhibition) at 1uM” value is given as 18.8%. For the molecule `CCOC(=O)c1ccc(-c2ccc(C(=O)Nc3cccnc3)o2)cc1`, the “hERG current change (%, negative = inhibition) at 1uM” value worked out at 15.4%. For `CC(=O)Nc1ccc(NC(=O)c2ccccc2Nc2ccccc2)cc1` the value was 13.7%; for `Cc1ccc(S(=O)(=O)N(CC(=O)NN=C2CCN(C)CC2)c2ccc(F)cc2)cc1`, 4.57%. The result for `CCOC(=O)N1CCN(C(=O)Cc2ccsc2)CC1` reads 9.83%.

With `Cc1cc(Oc2ccc(=O)n(C)n2)nc(SCC(N)=O)n1`, the “hERG current change (%, negative = inhibition) at 1uM” value was 7.36%. Turning to `CC1C(=O)N(Cc2ccccc2F)c2ccccc2N1C(=O)c1c(F)cccc1F` (stereo not shown), the “hERG current change (%, negative = inhibition) at 1uM” value was determined as 11.6%. For `COc1cc(NC(=O)c2ccc(COCC(F)(F)F)cc2)cc(OC)c1OC` the value was 10.7%. Consider `Cc1nn(-c2nnc(C)c(=O)[nH]2)c(C)c1SCC(=O)Nc1ccc(F)cc1`, for which the “hERG current change (%, negative = inhibition) at 1uM” value is given as 10.1%. The result for `CCc1nnc(NC(=O)Cc2ccc(OC)cc2)s1` reads 7.59%. For the molecule `CN(C)c1cnn(-c2ccccc2)c(=O)c1Cl`, the “hERG current change (%, negative = inhibition) at 1uM” value was 14.6%. As for `CC1CCN(C(=O)CCCOc2ccc(Cl)cc2)CC1`, the “hERG current change (%, negative = inhibition) at 1uM” value is on record as 9.09%.

In the case of `Cc1nc2nc[nH]n2c(=O)c1CCC(C)C`, the “hERG current change (%, negative = inhibition) at 1uM” value turned out to be 6.33%. Consider `COc1ccccc1NC(=O)CN1C(=O)NC(CC(C)C)C1=O` (stereo not shown), for which the “hERG current change (%, negative = inhibition) at 1uM” value stood at 5.37%. For `c1cnc(N2CCN(c3cnccn3)CC2)nc1` the value was 6.33%; for `Cc1c(Cl)cccc1N(CC(=O)NC(C)c1ccccc1)S(C)(=O)=O` (stereo not shown), 5.25%. For `C[C@]12C(=O)N(c3ccc(C(F)(F)F)cc3)C(=O)N1[C@@H]1c3ccccc3OC[C@@H]1[C@H]2c1ccccc1` the value was 2.16%; for `CNC(=O)c1cccc(NC(=O)CCCNC(=O)c2ccc(Cl)cc2)c1`, 10.7%; for `CN1/C(=C\C(=S)NC(=O)c2cccc(Br)c2)C(C)(C)c2ccccc21`, 2.19%. For `Cc1cc(C)c(S(=O)(=O)N(CC(=O)NCc2cccnc2)C2CCCCC2)c(C)c1`, the “hERG current change (%, negative = inhibition) at 1uM” value is reported as 5.08%.

Take `COC(=O)c1ccccc1NC(=S)NC(C)=O`: the “hERG current change (%, negative = inhibition) at 1uM” value came to 10.3%. The result for `Cn1c(SCc2ccccn2)nnc1-c1ccncc1` reads 3.35%. As for `CCN(CC)C(=O)c1ccc2c(c1)nnn2C`, the “hERG current change (%, negative = inhibition) at 1uM” value was found to be 6.32%. In the case of `CCC(c1nnnn1Cc1ccc(F)cc1)N(CCCO)Cc1cc2cc3c(cc2[nH]c1=O)OCO3` (stereo not shown), the “hERG current change (%, negative = inhibition) at 1uM” value was -1.03%. With `CC1(C)NC(=O)N(CN2C(=O)NC(C)(C)C2=O)C1=O`, the “hERG current change (%, negative = inhibition) at 1uM” value stood at 4.65%. As to `CCOC(=O)c1cccc(NC(=O)CSc2nnnn2CC)c1`, the “hERG current change (%, negative = inhibition) at 1uM” value came to 1.51%.

As to `CCN(CC)CCCn1c2c(c(SCC(=O)Nc3ccc(OC(F)(F)F)cc3)nc1=O)CCC2`, the “hERG current change (%, negative = inhibition) at 1uM” value was -45.7%. On to `C=CCn1c(SCC(=O)Nc2nnc(CC)s2)nnc1-c1ccco1`, for which the “hERG current change (%, negative = inhibition) at 1uM” value is recorded as 13.2%. On to `Cc1ccc(CNC(=O)CCc2cn(C)c3ccccc23)cc1`, for which the “hERG current change (%, negative = inhibition) at 1uM” value is given as 12.4%. Consider `Cc1ccc(Nc2cc(=O)[nH]c(=O)[nH]2)c(C)c1`, for which the “hERG current change (%, negative = inhibition) at 1uM” value turned out to be 15.1%. With `COCCCN(C(=S)Nc1cc(Cl)cc(Cl)c1)C(C)c1ccncc1` (stereo not shown), the “hERG current change (%, negative = inhibition) at 1uM” value is listed as -2.08%. The result for `Cc1ccc(-n2nc3c(=O)n(CCCC(=O)NCc4ccco4)nc(C)c3c2C)cc1` reads 13.2%; that for `CC1CC(C)CN(c2ncnc3c2cnn3C)C1` (stereo not shown), -4.06%. Consider `O=C(CN(C(=O)CCC(=O)Nc1nccs1)c1ccc(F)c(Cl)c1)NCC1CCCO1` (stereo not shown), for which the “hERG current change (%, negative = inhibition) at 1uM” value was determined as 20.2%. For `CC(=O)NC1C(=O)Nc2c(C)cc(C)cc21` (stereo not shown) the value was 11.4%. In the case of `C=CCOc1ccc(/C=C/C(=O)OC(C)C(=O)Nc2ccc(NC(C)=O)cc2)cc1` (stereo not shown), the “hERG current change (%, negative = inhibition) at 1uM” value is 10.8%.

`Cc1cccc(Nc2nc(OCC#N)nc(N(C)C)n2)c1`: the “hERG current change (%, negative = inhibition) at 1uM” value was 15.2%. For `CC1CCCC(C)N1C(=O)Cn1c(=O)sc2ccccc21` (stereo not shown) the value was 6.95%. Take `Cc1c(NS(=O)(=O)c2ccc(Cl)c(C(=O)OC(C)C(=O)NCc3ccco3)c2)c(=O)n(-c2ccccc2)n1C` (stereo not shown): the “hERG current change (%, negative = inhibition) at 1uM” value was -9.87%.

In the case of `O=C(Nc1ccccc1)Nc1ccc(C(=O)N2CCOCC2)cc1`, the “hERG current change (%, negative = inhibition) at 1uM” value came out at 23.2%. Consider `Cc1noc(C)c1COc1ccccc1C(=O)NNC(=O)c1ccccc1`, for which the “hERG current change (%, negative = inhibition) at 1uM” value is reported as 0.877%. The result for `CCn1c(NC(C)=O)nc2ccccc21` reads 20.2%. For `CC(Sc1ccsc1[N+](=O)[O-])C(=O)NCc1ccccc1` (stereo not shown), the “hERG current change (%, negative = inhibition) at 1uM” value stood at 18.5%.

For `CCOc1ccc(NC(=O)CN2CCN(CC(=O)Nc3cc(OC)cc(OC)c3)CC2)cc1`, the “hERG current change (%, negative = inhibition) at 1uM” value is reported as -71.3%. With `CC(=O)Nc1ccc(OC(=O)c2cc3cc(Br)cc(Br)c3oc2=O)cc1`, the “hERG current change (%, negative = inhibition) at 1uM” value came out at 5.16%. The result for `COc1ccc(S(=O)(=O)/N=C2/NC(=O)/C(=C\c3cc(OC)c(OC)cc3[N+](=O)[O-])S2)cc1` reads 11.2%; that for `O=C(Nc1ncccc1O)C1CCN(S(=O)(=O)c2ccc3ccccc3c2)CC1`, 9.83%; that for `CCC(=O)Nc1ccc(C(=O)NCCCn2ccnc2)cc1`, 5.01%. Take `CCc1ccc(CNC(=O)c2cc3c(C)nc4ccccc4c3o2)cc1`: the “hERG current change (%, negative = inhibition) at 1uM” value is recorded as 13.3%.

Regarding `Cc1ccc(NC(=O)CCSCCC(=O)Nc2ccc(C)c(C)c2)cc1C`, the “hERG current change (%, negative = inhibition) at 1uM” value is 9.29%. As to `CCN(CCNC(=O)C1CCCN(Cc2nc(-c3ccc(OC)cc3)oc2C)C1)c1ccccc1` (stereo not shown), the “hERG current change (%, negative = inhibition) at 1uM” value amounted to 5.86%. On to `Cc1cc(N=Cc2cc(Br)ccc2O)no1`, for which the “hERG current change (%, negative = inhibition) at 1uM” value was -1.67%. The result for `CC(=O)c1cccc(NC(=O)NNC(=O)CCC(=O)Nc2ccc(C)c(C)c2)c1` reads 9.49%; that for `Oc1ccc(O)c(Cc2nc3ccccc3s2)c1`, 7.28%; that for `COc1ccc(N(CC(=O)Nc2cc(C)on2)S(=O)(=O)c2cc(C)ccc2C)cc1`, -5.25%.

As for `CCCCOC(=O)c1ccc(NC(=O)c2cc(Cl)ccc2OC)cc1`, the “hERG current change (%, negative = inhibition) at 1uM” value turned out to be 6.54%. With `CCCn1c(N)c(N(CCOC)C(=O)CCC2CCCCC2)c(=O)[nH]c1=O`, the “hERG current change (%, negative = inhibition) at 1uM” value is recorded as 5.13%. The result for `CC(C)n1cc(C(=O)N2CCCC(Nc3ccc(F)c(F)c3)C2)cn1` (stereo not shown) reads 6.02%; that for `CC1CCN(C(=O)CSc2nc(N)c(NC(=O)c3ccccc3)c(=O)[nH]2)CC1`, 7.92%.
